This is one part of the list.
The sequences below were run against T1, OsWOX13 (Oryza sativa, UniProt Q5QMM3 1-267) (assay: protein-binding microarray (RPBM); PBS, 2% BSA, 51.3 ng/ul salmon testes DNA, 50 uM zinc acetate, 200 nM TF, 25 C, 1 h; high values mean tight binding). Settings: protein: recombinant; tags: N-terminal polyhistidine and DsRed monomer fusion (pET32a); label: CyDye5-dUTP incorporated in the synthesized complementary strand; 3' TTTTT single-stranded linker to array surface; dsDNA, one strand shown.
T1 sequence: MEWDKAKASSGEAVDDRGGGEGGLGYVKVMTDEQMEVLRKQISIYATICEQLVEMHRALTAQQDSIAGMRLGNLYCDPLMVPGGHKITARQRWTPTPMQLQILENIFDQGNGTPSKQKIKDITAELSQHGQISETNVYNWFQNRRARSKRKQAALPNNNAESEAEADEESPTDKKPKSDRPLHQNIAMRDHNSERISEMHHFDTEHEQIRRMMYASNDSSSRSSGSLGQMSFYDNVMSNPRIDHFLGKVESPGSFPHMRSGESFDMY
Summary of the method: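 Binding signal is reported as fluorescence intensity per feature (arbitrary units) from an Axon 4000B scanner. Incubation used 200 nM of each Ni–NTA-purified, N-terminally polyhistidine- and DsRed-fused transcription factor from E. coli BL21-CodonPlus on a double-stranded custom Agilent array for 1 h at 25 °C, with 50 µM zinc acetate in the buffer, followed by washing.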
With “GTGGCAATCAAGCTCAAGATAGAAGAAAAGGAAAATAAGTCGGAGTCACCTAGTGCAG” the binding signal was 4350 fluorescence intensity (a.u.).
For “ATTGATTTAATGAAAATAATTTAATATTATAAATATTACTCGGAGTCACCTAGTGCAG”, the binding signal was 35700 fluorescence intensity (a.u.).
For “TTCTTAATTTCTTCTTTCAGGTCATGTGCATCCATATTGTCGGAGTCACCTAGTGCAG”, the binding signal was 9620 fluorescence intensity (a.u.).
For “CGAATTAATTAGGTTTAATAAATTCGTCTCGCAATTTACACGGAGTCACCTAGTGCAG”, the binding signal was 5290 fluorescence intensity (a.u.).
With “TTAGATTTGATGCAGGTACTCGTATTTATGGTTAAATTTTCGGAGTCACCTAGTGCAG” the binding signal was 7530 fluorescence intensity (a.u.).
For “TTTCTTAATTTGATAGTACTAAATTTCTAGTTAGTATCTCCGGAGTCACCTAGTGCAG”, the binding signal was 21200 fluorescence intensity (a.u.).
For “TGTAATTTTACACCGTTCATACCCAACGTTTGATTGTTCGCGGAGTCACCTAGTGCAG”, the binding signal was 11100 fluorescence intensity (a.u.).
“ACTGGAATAGATTAGCACAAAGGCTGAGCGAATGTTTTGTCGGAGTCACCTAGTGCAG” was tested, and the binding signal was 14600 fluorescence intensity (a.u.).
With “ATAAAATTGATTGCTCGAGTTATAAAATTCGACTAAATTTCGGAGTCACCTAGTGCAG” the binding signal was 32800 fluorescence intensity (a.u.).
With “AGTTGACAGGAGGAGGTGAGAGCTTAGCCAACAAGCCCCACGGAGTCACCTAGTGCAG” the binding signal was 7110 fluorescence intensity (a.u.).
With “AATTTTCCCATAAATTAATGTAAATTGCACATATGCACCCCGGAGTCACCTAGTGCAG” the binding signal was 7520 fluorescence intensity (a.u.).
In the case of “ACACTAATTTGTGACAAGAGCGTGGAAGTCAAGAGCGATGCGGAGTCACCTAGTGCAG”, the binding signal is reported as 23400 fluorescence intensity (a.u.).
In the case of “TAAATTTACATTAATAGAACCAGAAGCAATCCAATTCTGTCGGAGTCACCTAGTGCAG”, the binding signal is reported as 14400 fluorescence intensity (a.u.).
For “TAATGGAAATTGGAAATGATTTCCCACCCATCAAAAGACACGGAGTCACCTAGTGCAG”, the binding signal was 11900 fluorescence intensity (a.u.).
With “GACAAATTTTGACCGAGAAATCTGTCGCCAGATGCCTAGCCGGAGTCACCTAGTGCAG” the binding signal was 3900 fluorescence intensity (a.u.).
In the case of “CCGGTAGATTGGATATTACAGCAGCCCAACTCCGACCAACCGGAGTCACCTAGTGCAG”, the binding signal is reported as 35000 fluorescence intensity (a.u.).
In the case of “TTGATATAATTAATTATGCTTGAATTAAATAATTGGTACTCGGAGTCACCTAGTGCAG”, the binding signal is reported as 50200 fluorescence intensity (a.u.).
In the case of “CCACAGTAATTAATTTCTTTCAAATATTCAAACCCATACTCGGAGTCACCTAGTGCAG”, the binding signal is reported as 29100 fluorescence intensity (a.u.).
In the case of “CAAGCTAATCATCCCCTGAAATTATGGCATCTTCTTGGTTCGGAGTCACCTAGTGCAG”, the binding signal is reported as 13000 fluorescence intensity (a.u.).
“TTTGAACTGATAATCATTATGACAGTTTCTTTCATCGTGCCGGAGTCACCTAGTGCAG” was tested, and the binding signal was 7890 fluorescence intensity (a.u.).
For “AACATAACATGTAATTATATCATAGTCAAATTTATTATTTCGGAGTCACCTAGTGCAG”, the binding signal was 4600 fluorescence intensity (a.u.).
With “ATTAATTATGGTGAATAAATTTGCAGGGACGGGTGTGTACCGGAGTCACCTAGTGCAG” the binding signal was 21100 fluorescence intensity (a.u.).
In the case of “CGACCCAATCACCCAACACGAACAGTGGTCCCTCCCTCACCGGAGTCACCTAGTGCAG”, the binding signal is reported as 3860 fluorescence intensity (a.u.).
For “ATGTTTAGTGTCAATTTAATCACTAAATTTGGATATTCATCGGAGTCACCTAGTGCAG”, the binding signal was 11100 fluorescence intensity (a.u.).
With “TTTGCAGAAATAATTTAATTACGAAGCAAACTCTCCTTGTCGGAGTCACCTAGTGCAG” the binding signal was 6740 fluorescence intensity (a.u.).
With “TTCATGATATCAATTTATGAGCATCAAAAGATTACCATGCCGGAGTCACCTAGTGCAG” the binding signal was 6980 fluorescence intensity (a.u.).
“GCAAATCAACTAATCAAATTCCCTCCGGAGGAGGAGGATACGGAGTCACCTAGTGCAG” was tested, and the binding signal was 4010 fluorescence intensity (a.u.).
For “ATCGAGATTAATCGAAAACTATTTTCTAGCTAGACTGAAACGGAGTCACCTAGTGCAG”, the binding signal was 4730 fluorescence intensity (a.u.).
In the case of “CCGTCTTTGATGATGATGACGAGGACGACTGTGGAATGCCCGGAGTCACCTAGTGCAG”, the binding signal is reported as 6330 fluorescence intensity (a.u.).
For “GAGTAACAGAATTGTATTTGAATTTTGTCGGGGCCGATTACGGAGTCACCTAGTGCAG”, the binding signal was 5860 fluorescence intensity (a.u.).
With “TAGAATTAGTTGATAGCTCTTTCATTGTTTTGGTCAACTCCGGAGTCACCTAGTGCAG” the binding signal was 3630 fluorescence intensity (a.u.).
For “GATGATGACAAACATGTTAGCGCCGTCCCTCTAGCCTCCTCGGAGTCACCTAGTGCAG”, the binding signal was 7730 fluorescence intensity (a.u.).
In the case of “ATACTATCACAAATGAAATTAATTGAAATGAAGAAAGAAACGGAGTCACCTAGTGCAG”, the binding signal is reported as 9850 fluorescence intensity (a.u.).
“TGTAAACTGATTGAAGTGAACATTTAAACCTGACGTGATTCGGAGTCACCTAGTGCAG” was tested, and the binding signal was 38800 fluorescence intensity (a.u.).
In the case of “TACGATACTTGCTAATTAATAGGCATTTTATACCTATGTACGGAGTCACCTAGTGCAG”, the binding signal is reported as 4300 fluorescence intensity (a.u.).
“TATATGAAATTATTATTTGATTTCTTGATCATATAATGTACGGAGTCACCTAGTGCAG” was tested, and the binding signal was 13300 fluorescence intensity (a.u.).
With “AATTAATTATGCGCTAAGTAGGAAAGGTCCCAACTAACAGCGGAGTCACCTAGTGCAG” the binding signal was 14100 fluorescence intensity (a.u.).
In the case of “TATATTCAATTATTGATTTGAAACTAATTTAGTATTATAACGGAGTCACCTAGTGCAG”, the binding signal is reported as 16300 fluorescence intensity (a.u.).
With “AAAATCAAACCACCATAGATAGATAGAAGAACAAGAAGAGCGGAGTCACCTAGTGCAG” the binding signal was 3920 fluorescence intensity (a.u.).
With “ACCTCATCATCTAATCTTATGTAGCAAATTTAGGAGCAGTCGGAGTCACCTAGTGCAG” the binding signal was 3680 fluorescence intensity (a.u.).
“AGTAATTAGCCACACTGCATATTAGCCACGACACCACAAGCGGAGTCACCTAGTGCAG” was tested, and the binding signal was 11200 fluorescence intensity (a.u.).
In the case of “TTCACAATTCTCAATTAGTTATGTCCAATTAAGATCCACCCGGAGTCACCTAGTGCAG”, the binding signal is reported as 8900 fluorescence intensity (a.u.).

Source: publication PMC7819943, “Rice protein-binding microarrays: a tool to detect cis-acting elements near promoter regions in rice”
